# Paper PMC6919601, “Identification of Plasmodium dipeptidyl aminopeptidase allosteric inhibitors by high throughput screening” (PLoS ONE, 2019)
# “And” between values parts separate entries of the source, which are not always exact repeats. Equal values may be shown once. Screen size: about 110,000 compounds; about 230 (0.21%) showed an effect of 50% or more. The list shows a part of the results.
# Target: DPAP1 (Plasmodium falciparum, UniProt Q8IIJ9)
# Assay: primary screen, percent inhibition; read by cleavage of a fluorogenic dipeptide substrate; higher = more effect of the substance
# Design: species or system P. falciparum D10 trophozoite lysates; single well
# 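Note: 30 min substrate incubation versus DMSO and 10 µM JCP410 controls.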
# Sequence of DPAP1 (Q8IIJ9 whole entry, looked up): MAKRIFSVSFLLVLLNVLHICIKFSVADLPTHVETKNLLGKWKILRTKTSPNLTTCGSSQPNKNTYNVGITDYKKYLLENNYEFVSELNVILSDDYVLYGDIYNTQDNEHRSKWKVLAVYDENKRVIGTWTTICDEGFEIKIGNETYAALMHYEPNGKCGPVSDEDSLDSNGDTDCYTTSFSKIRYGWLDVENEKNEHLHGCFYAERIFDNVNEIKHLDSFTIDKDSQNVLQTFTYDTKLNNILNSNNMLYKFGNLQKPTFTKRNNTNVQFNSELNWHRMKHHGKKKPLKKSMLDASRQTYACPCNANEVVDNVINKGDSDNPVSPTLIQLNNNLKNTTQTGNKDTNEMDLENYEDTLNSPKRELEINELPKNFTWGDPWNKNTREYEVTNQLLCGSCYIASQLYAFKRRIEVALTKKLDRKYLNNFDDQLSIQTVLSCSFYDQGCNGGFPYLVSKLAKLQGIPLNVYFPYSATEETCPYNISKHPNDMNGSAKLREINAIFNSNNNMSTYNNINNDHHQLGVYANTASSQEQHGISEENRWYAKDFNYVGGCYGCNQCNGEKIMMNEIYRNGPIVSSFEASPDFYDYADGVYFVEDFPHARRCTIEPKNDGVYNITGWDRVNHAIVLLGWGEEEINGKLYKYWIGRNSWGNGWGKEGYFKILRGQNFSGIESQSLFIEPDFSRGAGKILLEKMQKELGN
row,SMILES,% Inhibition @ 10 uM
1,CCCn1c(Nc2nc3ccccc3n2C)nc2ccccc21,-9.37%
2,CC1CCc2nc3sc(C(N)=O)c(N)c3cc2C1 (stereo not shown),21.1%
3,CCc1c(O)n2ccccc2nc1=O,-5.5%
4,Cc1ccc(-c2noc(COc3cccc(C)c3)n2)cc1,-3.29%
5,C=CCc1cc(/C=C2\C(=N)N3N=C(S(C)(=O)=O)SC3=NC2=O)cc(OC)c1O,1.9%
6,CCc1nc2c(C)ccc(C)c2c(N)c1C,-3.09%
7,Cc1ccc(NC(=O)c2ccccc2Br)cc1Cl,0.62%
8,c1ccc(Cc2nn3c(Cn4cnc5ccccc54)nnc3s2)cc1,21.2%
9,COc1cccc2c(O)c3cccc(N)c3nc12,-8.49%
10,O=C1C(=C2C=CN(CCc3ccccc3)C=C2)C(=O)c2ccccc21,-5.2%
11,Cn1nnc2c(NC3CC3)nc(Cc3ccc(Cl)cc3Cl)nc21,5.06%
12,Cc1ccc(NC(=O)c2sc3nc4c(cc3c2N)CCC4)c(C)c1,4.08%
13,O=C(O)/C=C/C(=O)Nc1cc(Cl)cc(Cl)c1,0.467%
14,Cc1cccc2sc(NC(=O)c3cccs3)nc12,3.8%
15,O=C(NCCOc1ccccc1Cc1ccccc1)c1ccc2c(c1)OCO2,-2.63%
16,CCOC(=O)N1CCC(NC(=O)C2CCCN2C(=O)OCc2ccccc2)CC1 (stereo not shown),-2.17%
17,CC(NC(=O)CSc1nnnn1-c1ccc2c(c1)OCO2)C12C[C@H]3C[C@@H](C1)C[C@@H](C2)C3 (stereo partly shown),-2.05%
18,CC1CCCC(C)N1CCCNC(=O)c1ccc2nc(N3CCCCC3)sc2c1 (stereo not shown),-4.15%
19,Cc1nnc(N2CCC(C(=O)N(C)Cc3ccccc3)CC2)c2nn(-c3ccccc3)c(C)c12,3.74%
20,CC(=O)N1CCN(CCC(C)c2ccccc2)CC1 (stereo not shown),1.88%
21,N#CCNC(=O)[C@H](CSCc1ccccc1)NC(=O)c1ccc2ccccc2c1,-6.98%
22,CCc1ccc(C2C=C(c3ccc(Br)cc3)Nc3ncnn32)cc1 (stereo not shown),1.73%
23,Oc1nnc(-c2cccc3ccccc23)c2cn(-c3ccccc3)nc12,-9.11%
24,Cc1ccc2c(nc3s/c(=C/c4ccc(F)cc4)c(=O)n32)c1C,3.32%
25,COc1ccc(OCC(=O)Nc2ccc(S(=O)(=O)Nc3nccs3)cc2)cc1,-5.07%

row,SMILES,% Inhibition @ 10 uM
1,O=C(CCn1cccc1)NC1CCCCCC1,2.57%
2,O=C(CN1CCCCC1)n1c2ccccc2c2ccccc21,2.03%
3,Cc1ccc(CN(C(=O)COc2c(F)c(F)c(F)c(F)c2F)C2CCS(=O)(=O)C2)o1 (stereo not shown),3.77%
4,CC(=O)C1=C(O)C(=O)N(CCc2c[nH]c3ccccc23)C1c1ccc(Cl)cc1 (stereo not shown),3.8%
5,CC(C)(C)c1ccc(C(=O)Nc2cccc(NC(=O)c3cccc([N+](=O)[O-])c3)c2)cc1,17.2%
6,O=C(c1cc2c(Cl)nc3ccccc3c2s1)N1CCN(Cc2ccccc2)CC1,-3.37%
7,Cc1ccc2nc(NC(=O)C3CCCO3)sc2c1 (stereo not shown),3.17%
8,CCc1cc2c(N3CCN(Cc4ccc5c(c4)OCO5)CC3)ncnc2s1,-16.1%
9,O=C(NCCN1CCOCC1)c1cnn2c(C(F)(F)F)cc(-c3ccc(F)cc3)nc12,8.21%
10,COc1ccc(CC(C)NCC2CCCO2)cc1 (stereo not shown),-3.6%
11,COc1ccc(-c2nc(C#N)c(N3CC(C)CC(C)C3)o2)cc1 (stereo not shown),6.73%
12,CCOCCn1c(CN2CCC(C)CC2)nc2c1c(=O)n(C)c(=O)n2C,-1.43%
13,Cc1ccc(-c2cn3nc(N4CCCC(C(=O)NC(C)C)C4)sc3n2)cc1 (stereo not shown),3.21%
14,O=c1/c(=C\c2c[nH]c3ccccc23)sc2n1CCN=2,-5.04%
15,Clc1cccc(N2CCN(C3CCSC3)CC2)c1 (stereo not shown),-2.91%
16,COCCN(Cc1ccco1)C(=O)Cn1ncc2c1-c1cc(C)ccc1OC2,-1.36%
17,COc1ccc(-c2noc(N3CCC(C(=O)N4CCC(Cc5ccccc5)CC4)CC3)n2)cc1,3.36%
18,O=C(O)c1ccc(Cl)c(S(=O)(=O)N2CCCCC2)c1,-4.08%
19,C/C(=C\c1ccccc1F)C(=O)c1c(C)cc(C)nc1O,17.9%
20,COc1ccc(C2=N/C(=C\c3coc4ccccc4c3=O)C(=O)O2)c(Cl)c1,10.5%
21,O=C(CN(c1ccc2c(c1)OCCO2)S(=O)(=O)c1ccccc1)NC1CC1,-0.872%
22,O=C(O)c1cc2c(Cl)ccc3c2n1CCO3,-3.53%
23,CC(C)C[C@H](NC(=O)c1ccc2c(c1)CCCC2)C(=O)NCC#N,-1.82%
24,Cc1cc(C(=O)NC(C)(C)C)on1,3.01%
25,Cc1ccc(NC(=O)Nc2ccc(C(=O)N3CCCCC3)cc2)cc1,-0.28%

row,SMILES,% Inhibition @ 10 uM
1,COc1ccc(CN(CCc2ccccc2)S(=O)(=O)c2cccc3nsnc23)cc1,-3.96%
2,Cc1cc(/C=C2/SC(=O)N(CC(=O)N3CCN(c4ccccc4)CC3)C2=O)c(C)n1C(C)C,5.44%
3,CCCn1c(CCNC(=O)COc2ccccc2)nc2ccccc21,-1.29%
4,CN(C)Cc1ccc(O)c(CCc2ccccc2)n1,0.716% and -2.18%
5,CCOc1ccc(CCNC(=O)Cn2ncc3c(=O)oc4ccc(C)cc4c32)cc1OCC,-0.0115%
6,Cc1ccc(C)c(Cn2c(C(=O)O)c(CNCc3ccco3)c3ccccc32)c1,10.8%
7,Cc1ccc(NC(=O)COc2ccc(C)cc2C)cc1,-8.06%
8,O=C(CSc1c2c(nc3ccccc13)CCCC2)NCc1cccnc1,-3.23%
9,O=C(/C=C/c1ccco1)c1ccc(F)cc1,14.1%
10,COc1ccc(OC)c(C2CC(c3ccc(Br)cc3)=NN2C(=O)CCC(=O)O)c1 (stereo not shown),12.3%
11,O=C(c1cccs1)N1CCN(C(c2ccccc2)c2ccccc2)CC1,-5.92%
12,Clc1cccc(CN2CCN(Cc3ccncc3)CC2)c1,-1.3%
13,Cc1cc(=O)oc2cc(OCC(=O)Nc3ccccc3Cl)ccc12,10.2%
14,N#CCNC(=O)[C@H](CSCc1ccccc1)NC(=O)c1cccc(C(=O)c2ccccc2)c1,-0.214%
15,COC(=O)C12CC3CC(C)(CC(C)(C3)C1)C2,-0.424%
16,O=C(COc1ccccc1)Nc1ccc(Br)c(Cl)c1,-8.68%
17,CCN(Cc1ccccc1)C(=O)CCc1nc(-c2ccc(OC)cc2)no1,18.2%
18,Cc1ccc(S(=O)(=O)Nc2nc[nH]n2)cc1,-10.3%
19,COc1cc(C2C(C#N)=C(N)Oc3[nH]nc(C)c32)cc(Cl)c1OCc1cccc(F)c1 (stereo not shown),0.658%
20,Cc1ccc(C(CC(=O)NCc2ccco2)c2ccccc2)c(O)c1C (stereo not shown),-12.4%
21,CCc1nn2c(=O)c(S(=O)(=O)NCc3ccc(F)cc3)c(C)nc2s1,0.91%
22,OC12CCCCC1C(c1ccc(F)c(F)c1)NCC2 (stereo not shown),-0.13%
23,Cc1ccc(-c2noc(-c3nnn(-c4cc(C)ccc4C)c3N)n2)cc1,4.98%
24,Cn1c2ccccc2c2c(C(=O)NCc3ccco3)cn(C3CCCCC3)c(=O)c21,-3.39%
25,Cc1cccc(Cn2c(NCCCn3ccnc3)nc3c2c(=O)[nH]c(=O)n3C)c1,3.59%

row,SMILES,% Inhibition @ 10 uM
1,COc1ccc(S(=O)(=O)NCC2CCC(C(=O)NC3CCCCCCC3)CC2)cc1 (stereo not shown),-4.53%
2,O=C(Nc1ccc(Br)cc1F)C1CC(=O)N(c2ccc(F)cc2)C1 (stereo not shown),5.26%
3,Fc1ccccc1C1C=C(c2ccccc2)Nc2ncnn21 (stereo not shown),2.4%
4,Cc1cc(S(=O)(=O)N2CC=C(c3c(C)n(CC(=O)N4CCCC4)c4ccccc34)CC2)ccc1F,5.53%
5,CCOc1ccccc1-n1nnc(-c2nc(-c3ccncc3)no2)c1N,1.66%
6,Cc1c2cnn(CC(=O)NCCN3CCCC3)c(=O)c2c(C)n1Cc1ccc(Cl)cc1,-0.447%
7,C=C(C)CC1NC2CC(C)(C)C1c1ccccc12 (stereo not shown),-1.44%
8,Cc1ccc(NC(=O)Nc2sc(NS(=O)(=O)c3ccccc3)nc2C)cc1,-3.78%
9,O=C(NCc1nc2nc(-c3ccccc3)cc(C(F)(F)F)n2n1)c1ccccc1,2.84%
10,COc1ccc(CNC(=O)c2cc3c(=O)n4ccccc4nc3n2C)cc1,3.56%
11,CC12C=CC(O1)C1C(=O)N(c3ccc(F)c(Cl)c3)C(=O)C12 (stereo not shown),0.189%
12,COCc1cc(C)nc2sc3c(c12)N(C(C)=O)C(c1ccc(F)cc1)NC3=O (stereo not shown),1.03%
13,COC(=O)c1ccc2c(c1)Cc1c(O)nc(-c3ccccc3)nc1O2,-1.06%
14,NC(=O)c1ccc(NC(=O)Cn2cnc3ccccc3c2=O)cc1,-3.05%
15,COc1ccc(Cn2c(C(=O)O)c(CNCCc3ccc(Cl)cc3)c3ccc(OC)cc32)cc1,2.86%
16,CCCc1cc(C(=O)NC(C)C23CC4CC(CC(C4)C2)C3)n(C)n1 (stereo not shown),-0.92%
17,Oc1ccc(NCc2ccc(Cl)cc2Cl)cc1,-0.366%
18,CC(C)c1ccc(NC(=O)/C=C/c2cccc([N+](=O)[O-])c2)cc1,-1.92%
19,NC(=O)c1cccc(NC(=O)/C=C/C(=O)O)c1,0.634%
20,COc1ccc(C2C(C#N)=C(N)Oc3[nH]nc(C)c32)cc1OC (stereo not shown),1.01%
21,CCOC(=O)N1CCC(NC(=O)c2oc3ccc4c(c3c2C)C(O)CC(C)(C)O4)CC1 (stereo not shown),1.63%
22,CCOC(=O)C1=C(C)NC(=O)NC1c1cn(-c2ccccc2)nc1-c1ccc(Cl)cc1 (stereo not shown),3.95%
23,COc1cc(OC)c(OC)cc1/C=N/c1sc2c(c1C#N)CCCC2,1.25%
24,COCCCNC(=O)c1cc(Sc2ccccc2C(F)(F)F)nc2ccccc12,-1.79%
25,O=C1c2ccccc2C(=O)N1CN1CCC(Cc2ccccc2)CC1,-5.6%
